Residue numbers refer to the chain shown, from its start. The list shows a part of the results.
T1: RBFOX1 RRM (Homo sapiens, UniProt Q9NWB1 109-208)
T1 sequence: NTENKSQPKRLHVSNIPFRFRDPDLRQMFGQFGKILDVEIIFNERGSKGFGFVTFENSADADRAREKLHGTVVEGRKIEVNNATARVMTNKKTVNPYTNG

B1: ACGAAAA (DNA:RNA)
RNA: GGGAGACCGGAAUUCAGAUUGUCCACGAAAAUUAAAUCCCGUCGUAGCCACCA
DNA 1: CAATCTGAATTCCGGTCTCCC
DNA 2: TGGTGGCTACGACGGGATT
B2: UAGAGUG (DNA:RNA)
RNA: B1 RNA with A25U, C26A, A29G, A30U, A31G
DNA 1: CAATCTGAATTCCGGTCTCCC
DNA 2: TGGTGGCTACGACGGGATT
B3: UAGAUGU (DNA:RNA)
RNA: B1 RNA with A25U, C26A, A29U, A30G, A31U
DNA 1: CAATCTGAATTCCGGTCTCCC
DNA 2: TGGTGGCTACGACGGGATT
B4: UUUUGCC (DNA:RNA)
RNA: GGGAGACCGGAAUUCAGAUUGUCCUUUUGCCUUAAAUCCCGUCGUAGCCACCA
DNA 1: CAATCTGAATTCCGGTCTCCC
DNA 2: TGGTGGCTACGACGGGATT
B5: UAAAGCG (DNA:RNA)
RNA: B4 RNA with U26A, U27A, U28A, C31G
DNA 1: CAATCTGAATTCCGGTCTCCC
DNA 2: TGGTGGCTACGACGGGATT
B6: GAACACU (DNA:RNA)
RNA: B1 RNA with A25G, C26A, G27A, A28C, A30C, A31U
DNA 1: CAATCTGAATTCCGGTCTCCC
DNA 2: TGGTGGCTACGACGGGATT
B7: CCUCUGG (DNA:RNA)
RNA: B1 RNA with A25C, G27U, A28C, A29U, A30G, A31G
DNA 1: CAATCTGAATTCCGGTCTCCC
DNA 2: TGGTGGCTACGACGGGATT
B8: UUGCCGC (DNA:RNA)
RNA: B4 RNA with U27G, U28C, G29C, C30G
DNA 1: CAATCTGAATTCCGGTCTCCC
DNA 2: TGGTGGCTACGACGGGATT
B9: GGUGACA (DNA:RNA)
RNA: B1 RNA with A25G, C26G, G27U, A28G, A30C
DNA 1: CAATCTGAATTCCGGTCTCCC
DNA 2: TGGTGGCTACGACGGGATT
B10: GCACACC (DNA:RNA)
RNA: B1 RNA with A25G, G27A, A28C, A30C, A31C
DNA 1: CAATCTGAATTCCGGTCTCCC
DNA 2: TGGTGGCTACGACGGGATT
B11: AAUUGUU (DNA:RNA)
RNA: B4 RNA with U25A, U26A, C30U, C31U
DNA 1: CAATCTGAATTCCGGTCTCCC
DNA 2: TGGTGGCTACGACGGGATT
B12: AUAUGGA (DNA:RNA)
RNA: B4 RNA with U25A, U27A, C30G, C31A
DNA 1: CAATCTGAATTCCGGTCTCCC
DNA 2: TGGTGGCTACGACGGGATT
B13: CGUCAGA (DNA:RNA)
RNA: B1 RNA with A25C, C26G, G27U, A28C, A30G
DNA 1: CAATCTGAATTCCGGTCTCCC
DNA 2: TGGTGGCTACGACGGGATT
B14: CAUGCCA (DNA:RNA)
RNA: B4 RNA with U25C, U26A, U28G, G29C, C31A
DNA 1: CAATCTGAATTCCGGTCTCCC
DNA 2: TGGTGGCTACGACGGGATT
B15: CUACGCU (DNA:RNA)
RNA: B4 RNA with U25C, U27A, U28C, C31U
DNA 1: CAATCTGAATTCCGGTCTCCC
DNA 2: TGGTGGCTACGACGGGATT
B16: CGCCGCC (DNA:RNA)
RNA: B4 RNA with U25C, U26G, U27C, U28C
DNA 1: CAATCTGAATTCCGGTCTCCC
DNA 2: TGGTGGCTACGACGGGATT
B17: AGAAACU (DNA:RNA)
RNA: B1 RNA with C26G, G27A, A30C, A31U
DNA 1: CAATCTGAATTCCGGTCTCCC
DNA 2: TGGTGGCTACGACGGGATT
B18: GCGUUCG (DNA:RNA)
RNA: B1 RNA with A25G, A28U, A29U, A30C, A31G
DNA 1: CAATCTGAATTCCGGTCTCCC
DNA 2: TGGTGGCTACGACGGGATT
B19: GUAGGAG (DNA:RNA)
RNA: B4 RNA with U25G, U27A, U28G, C30A, C31G
DNA 1: CAATCTGAATTCCGGTCTCCC
DNA 2: TGGTGGCTACGACGGGATT
B20: AAUAUCU (DNA:RNA)
RNA: B1 RNA with C26A, G27U, A29U, A30C, A31U
DNA 1: CAATCTGAATTCCGGTCTCCC
DNA 2: TGGTGGCTACGACGGGATT

target: T1, RBFOX1 RRM; test: EMSA; HiTS-Eq, 1 nM pool, 10 min; buffer printed only for the single-RNA assays: 10 mM Tris pH 7.5, 150 mM NaCl, 3.4 mM EDTA, 0.001% NP-40, 30 C; settings: tags: His6 N-terminal (pET28a); label: 5' 32P
In short: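 Relative association constants, normalised to the cognate motif, were derived by comparing read counts of each RNA species with those of the control reaction. The RNA sequenced was the free fraction, separated by 8% native PAGE after a 10 min equilibration in 50 µL of 1 nM 5′-radiolabelled RNA (7 randomized nucleotides) with increasing concentrations of purified wild-type or mutant RbFox RRM.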

Binder | binding signal
B1 | 0.000734 KA relative to UGCAUGU
B2 | 0.0201 KA relative to UGCAUGU
B3 | 0.0139 KA relative to UGCAUGU
B4 | 0.016 KA relative to UGCAUGU
B5 | 0.00635 KA relative to UGCAUGU
B6 | 0.00588 KA relative to UGCAUGU
B7 | 0.00948 KA relative to UGCAUGU
B8 | 0.0194 KA relative to UGCAUGU
B9 | 0.00992 KA relative to UGCAUGU
B10 | 0.00428 KA relative to UGCAUGU
B11 | 0.0119 KA relative to UGCAUGU
B12 | 0.000702 KA relative to UGCAUGU
B13 | 0.00954 KA relative to UGCAUGU
B14 | 0.00477 KA relative to UGCAUGU
B15 | 0.00553 KA relative to UGCAUGU
B16 | 0.00919 KA relative to UGCAUGU
B17 | 0.00376 KA relative to UGCAUGU
B18 | 0.0164 KA relative to UGCAUGU
B19 | 0.00547 KA relative to UGCAUGU
B20 | 0.00131 KA relative to UGCAUGU

— PMC9911399, “Two distinct binding modes provide the RNA-binding protein RbFox with extraordinary sequence specificity”
